Where a chain is given by its changes, count along the chain named. Some of the results follow.
B1: CGAUAAG (DNA:RNA)
RNA: GGGAGACCGGAAUUCAGAUUGUCCCGAUAAGUUAAAUCCCGUCGUAGCCACCA
DNA 1: CAATCTGAATTCCGGTCTCCC
DNA 2: TGGTGGCTACGACGGGATT
B2: CGAUCGC (DNA:RNA)
RNA: B1 RNA with A29C, A30G, G31C
DNA 1: CAATCTGAATTCCGGTCTCCC
DNA 2: TGGTGGCTACGACGGGATT
B3: CCACGGG (DNA:RNA)
RNA: B1 RNA with G26C, U28C, A29G, A30G
DNA 1: CAATCTGAATTCCGGTCTCCC
DNA 2: TGGTGGCTACGACGGGATT
B4: AAGAAAA (DNA:RNA)
RNA: B1 RNA with C25A, G26A, A27G, U28A, G31A
DNA 1: CAATCTGAATTCCGGTCTCCC
DNA 2: TGGTGGCTACGACGGGATT
B5: AGUCGCU (DNA:RNA)
RNA: B1 RNA with C25A, A27U, U28C, A29G, A30C, G31U
DNA 1: CAATCTGAATTCCGGTCTCCC
DNA 2: TGGTGGCTACGACGGGATT
B6: CGCUCGG (DNA:RNA)
RNA: B1 RNA with A27C, A29C, A30G
DNA 1: CAATCTGAATTCCGGTCTCCC
DNA 2: TGGTGGCTACGACGGGATT
B7: CUGUCUC (DNA:RNA)
RNA: B1 RNA with G26U, A27G, A29C, A30U, G31C
DNA 1: CAATCTGAATTCCGGTCTCCC
DNA 2: TGGTGGCTACGACGGGATT
B8: UCCUCCC (DNA:RNA)
RNA: B1 RNA with C25U, G26C, A27C, A29C, A30C, G31C
DNA 1: CAATCTGAATTCCGGTCTCCC
DNA 2: TGGTGGCTACGACGGGATT
B9: GUGCUCA (DNA:RNA)
RNA: GGGAGACCGGAAUUCAGAUUGUCCGUGCUCAUUAAAUCCCGUCGUAGCCACCA
DNA 1: CAATCTGAATTCCGGTCTCCC
DNA 2: TGGTGGCTACGACGGGATT
B10: AAGGUCG (DNA:RNA)
RNA: B9 RNA with G25A, U26A, C28G, A31G
DNA 1: CAATCTGAATTCCGGTCTCCC
DNA 2: TGGTGGCTACGACGGGATT
B11: UAAGCGG (DNA:RNA)
RNA: B1 RNA with C25U, G26A, U28G, A29C, A30G
DNA 1: CAATCTGAATTCCGGTCTCCC
DNA 2: TGGTGGCTACGACGGGATT
B12: GGCUAAU (DNA:RNA)
RNA: B1 RNA with C25G, A27C, G31U
DNA 1: CAATCTGAATTCCGGTCTCCC
DNA 2: TGGTGGCTACGACGGGATT
B13: ACCACCA (DNA:RNA)
RNA: B9 RNA with G25A, U26C, G27C, C28A, U29C
DNA 1: CAATCTGAATTCCGGTCTCCC
DNA 2: TGGTGGCTACGACGGGATT
B14: GCUCGCU (DNA:RNA)
RNA: B9 RNA with U26C, G27U, U29G, A31U
DNA 1: CAATCTGAATTCCGGTCTCCC
DNA 2: TGGTGGCTACGACGGGATT
B15: UACUUUG (DNA:RNA)
RNA: B1 RNA with C25U, G26A, A27C, A29U, A30U
DNA 1: CAATCTGAATTCCGGTCTCCC
DNA 2: TGGTGGCTACGACGGGATT
B16: GCCCUAU (DNA:RNA)
RNA: B9 RNA with U26C, G27C, C30A, A31U
DNA 1: CAATCTGAATTCCGGTCTCCC
DNA 2: TGGTGGCTACGACGGGATT
B17: GUAGUUC (DNA:RNA)
RNA: B9 RNA with G27A, C28G, C30U, A31C
DNA 1: CAATCTGAATTCCGGTCTCCC
DNA 2: TGGTGGCTACGACGGGATT
B18: GGCGUUC (DNA:RNA)
RNA: B9 RNA with U26G, G27C, C28G, C30U, A31C
DNA 1: CAATCTGAATTCCGGTCTCCC
DNA 2: TGGTGGCTACGACGGGATT
B19: GGUGCCU (DNA:RNA)
RNA: B9 RNA with U26G, G27U, C28G, U29C, A31U
DNA 1: CAATCTGAATTCCGGTCTCCC
DNA 2: TGGTGGCTACGACGGGATT
B20: CCCUGCC (DNA:RNA)
RNA: B1 RNA with G26C, A27C, A29G, A30C, G31C
DNA 1: CAATCTGAATTCCGGTCTCCC
DNA 2: TGGTGGCTACGACGGGATT
B21: UUAACGU (DNA:RNA)
RNA: B1 RNA with C25U, G26U, U28A, A29C, A30G, G31U
DNA 1: CAATCTGAATTCCGGTCTCCC
DNA 2: TGGTGGCTACGACGGGATT
B22: CUCUUGC (DNA:RNA)
RNA: B1 RNA with G26U, A27C, A29U, A30G, G31C
DNA 1: CAATCTGAATTCCGGTCTCCC
DNA 2: TGGTGGCTACGACGGGATT
B23: UAAUAAG (DNA:RNA)
RNA: B1 RNA with C25U, G26A
DNA 1: CAATCTGAATTCCGGTCTCCC
DNA 2: TGGTGGCTACGACGGGATT
B24: GGAUUCG (DNA:RNA)
RNA: B1 RNA with C25G, A29U, A30C
DNA 1: CAATCTGAATTCCGGTCTCCC
DNA 2: TGGTGGCTACGACGGGATT
B25: CCUUAGC (DNA:RNA)
RNA: B1 RNA with G26C, A27U, A30G, G31C
DNA 1: CAATCTGAATTCCGGTCTCCC
DNA 2: TGGTGGCTACGACGGGATT
B26: UAGUGCU (DNA:RNA)
RNA: B9 RNA with G25U, U26A, C28U, U29G, A31U
DNA 1: CAATCTGAATTCCGGTCTCCC
DNA 2: TGGTGGCTACGACGGGATT
B27: CUACCGG (DNA:RNA)
RNA: B1 RNA with G26U, U28C, A29C, A30G
DNA 1: CAATCTGAATTCCGGTCTCCC
DNA 2: TGGTGGCTACGACGGGATT
B28: AGAGACA (DNA:RNA)
RNA: B1 RNA with C25A, U28G, A30C, G31A
DNA 1: CAATCTGAATTCCGGTCTCCC
DNA 2: TGGTGGCTACGACGGGATT
B29: GCGGUCC (DNA:RNA)
RNA: B9 RNA with U26C, C28G, A31C
DNA 1: CAATCTGAATTCCGGTCTCCC
DNA 2: TGGTGGCTACGACGGGATT
B30: GGACCGC (DNA:RNA)
RNA: B1 RNA with C25G, U28C, A29C, A30G, G31C
DNA 1: CAATCTGAATTCCGGTCTCCC
DNA 2: TGGTGGCTACGACGGGATT
B31: ACGAAGU (DNA:RNA)
RNA: B1 RNA with C25A, G26C, A27G, U28A, A30G, G31U
DNA 1: CAATCTGAATTCCGGTCTCCC
DNA 2: TGGTGGCTACGACGGGATT

Target: T1, RBFOX1 RRM RbFoxmut (Fox-RRM*) (Homo sapiens, UniProt Q9NWB1 109-208, R118D;E147R;N151S;E152T)
T1 sequence: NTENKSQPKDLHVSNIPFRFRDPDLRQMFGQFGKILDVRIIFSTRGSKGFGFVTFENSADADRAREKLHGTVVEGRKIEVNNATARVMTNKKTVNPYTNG
Experiment: EMSA; HiTS-Eq, 1 nM pool, 10 min; buffer printed only for the single-RNA assays: 10 mM Tris pH 7.5, 150 mM NaCl, 3.4 mM EDTA, 0.001% NP-40, 30 C
Conditions: tags: His6 N-terminal (pET28a); label: 5' 32P
Method in brief: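 Relative association constants, normalised to the cognate motif, were derived by comparing read counts of each RNA species with those of the control reaction. The RNA sequenced was the free fraction, separated by 8% native PAGE after a 10 min equilibration in 50 µL of 1 nM 5′-radiolabelled RNA (7 randomized nucleotides) with increasing concentrations of purified wild-type or mutant RbFox RRM.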

Binder	binding signal
B1	0.0989 KA relative to UGCAUGU
B2	0.0736 KA relative to UGCAUGU
B3	0.0735 KA relative to UGCAUGU
B4	0.106 KA relative to UGCAUGU
B5	0.0771 KA relative to UGCAUGU
B6	0.0892 KA relative to UGCAUGU
B7	0.0817 KA relative to UGCAUGU
B8	0.0615 KA relative to UGCAUGU
B9	0.0843 KA relative to UGCAUGU
B10	0.111 KA relative to UGCAUGU
B11	0.0897 KA relative to UGCAUGU
B12	0.098 KA relative to UGCAUGU
B13	0.125 KA relative to UGCAUGU
B14	0.0951 KA relative to UGCAUGU
B15	0.0734 KA relative to UGCAUGU
B16	0.0677 KA relative to UGCAUGU

Binder	binding signal
B17	0.102 KA relative to UGCAUGU
B18	0.157 KA relative to UGCAUGU
B19	0.0824 KA relative to UGCAUGU
B20	0.249 KA relative to UGCAUGU
B21	0.0781 KA relative to UGCAUGU
B22	0.128 KA relative to UGCAUGU
B23	0.0895 KA relative to UGCAUGU
B24	0.161 KA relative to UGCAUGU
B25	0.12 KA relative to UGCAUGU
B26	0.0945 KA relative to UGCAUGU
B27	0.0646 KA relative to UGCAUGU
B28	0.0576 KA relative to UGCAUGU
B29	0.0908 KA relative to UGCAUGU
B30	0.107 KA relative to UGCAUGU
B31	0.113 KA relative to UGCAUGU

Reference: article PMC9911399, “Two distinct binding modes provide the RNA-binding protein RbFox with extraordinary sequence specificity”
